# Assay results from publication PMC12714564.
# Amino acid sequences for entries named in this document (tags omitted). A change or cut given only in a name is not applied to a line headed by its entry.
# UniProt Q96L91: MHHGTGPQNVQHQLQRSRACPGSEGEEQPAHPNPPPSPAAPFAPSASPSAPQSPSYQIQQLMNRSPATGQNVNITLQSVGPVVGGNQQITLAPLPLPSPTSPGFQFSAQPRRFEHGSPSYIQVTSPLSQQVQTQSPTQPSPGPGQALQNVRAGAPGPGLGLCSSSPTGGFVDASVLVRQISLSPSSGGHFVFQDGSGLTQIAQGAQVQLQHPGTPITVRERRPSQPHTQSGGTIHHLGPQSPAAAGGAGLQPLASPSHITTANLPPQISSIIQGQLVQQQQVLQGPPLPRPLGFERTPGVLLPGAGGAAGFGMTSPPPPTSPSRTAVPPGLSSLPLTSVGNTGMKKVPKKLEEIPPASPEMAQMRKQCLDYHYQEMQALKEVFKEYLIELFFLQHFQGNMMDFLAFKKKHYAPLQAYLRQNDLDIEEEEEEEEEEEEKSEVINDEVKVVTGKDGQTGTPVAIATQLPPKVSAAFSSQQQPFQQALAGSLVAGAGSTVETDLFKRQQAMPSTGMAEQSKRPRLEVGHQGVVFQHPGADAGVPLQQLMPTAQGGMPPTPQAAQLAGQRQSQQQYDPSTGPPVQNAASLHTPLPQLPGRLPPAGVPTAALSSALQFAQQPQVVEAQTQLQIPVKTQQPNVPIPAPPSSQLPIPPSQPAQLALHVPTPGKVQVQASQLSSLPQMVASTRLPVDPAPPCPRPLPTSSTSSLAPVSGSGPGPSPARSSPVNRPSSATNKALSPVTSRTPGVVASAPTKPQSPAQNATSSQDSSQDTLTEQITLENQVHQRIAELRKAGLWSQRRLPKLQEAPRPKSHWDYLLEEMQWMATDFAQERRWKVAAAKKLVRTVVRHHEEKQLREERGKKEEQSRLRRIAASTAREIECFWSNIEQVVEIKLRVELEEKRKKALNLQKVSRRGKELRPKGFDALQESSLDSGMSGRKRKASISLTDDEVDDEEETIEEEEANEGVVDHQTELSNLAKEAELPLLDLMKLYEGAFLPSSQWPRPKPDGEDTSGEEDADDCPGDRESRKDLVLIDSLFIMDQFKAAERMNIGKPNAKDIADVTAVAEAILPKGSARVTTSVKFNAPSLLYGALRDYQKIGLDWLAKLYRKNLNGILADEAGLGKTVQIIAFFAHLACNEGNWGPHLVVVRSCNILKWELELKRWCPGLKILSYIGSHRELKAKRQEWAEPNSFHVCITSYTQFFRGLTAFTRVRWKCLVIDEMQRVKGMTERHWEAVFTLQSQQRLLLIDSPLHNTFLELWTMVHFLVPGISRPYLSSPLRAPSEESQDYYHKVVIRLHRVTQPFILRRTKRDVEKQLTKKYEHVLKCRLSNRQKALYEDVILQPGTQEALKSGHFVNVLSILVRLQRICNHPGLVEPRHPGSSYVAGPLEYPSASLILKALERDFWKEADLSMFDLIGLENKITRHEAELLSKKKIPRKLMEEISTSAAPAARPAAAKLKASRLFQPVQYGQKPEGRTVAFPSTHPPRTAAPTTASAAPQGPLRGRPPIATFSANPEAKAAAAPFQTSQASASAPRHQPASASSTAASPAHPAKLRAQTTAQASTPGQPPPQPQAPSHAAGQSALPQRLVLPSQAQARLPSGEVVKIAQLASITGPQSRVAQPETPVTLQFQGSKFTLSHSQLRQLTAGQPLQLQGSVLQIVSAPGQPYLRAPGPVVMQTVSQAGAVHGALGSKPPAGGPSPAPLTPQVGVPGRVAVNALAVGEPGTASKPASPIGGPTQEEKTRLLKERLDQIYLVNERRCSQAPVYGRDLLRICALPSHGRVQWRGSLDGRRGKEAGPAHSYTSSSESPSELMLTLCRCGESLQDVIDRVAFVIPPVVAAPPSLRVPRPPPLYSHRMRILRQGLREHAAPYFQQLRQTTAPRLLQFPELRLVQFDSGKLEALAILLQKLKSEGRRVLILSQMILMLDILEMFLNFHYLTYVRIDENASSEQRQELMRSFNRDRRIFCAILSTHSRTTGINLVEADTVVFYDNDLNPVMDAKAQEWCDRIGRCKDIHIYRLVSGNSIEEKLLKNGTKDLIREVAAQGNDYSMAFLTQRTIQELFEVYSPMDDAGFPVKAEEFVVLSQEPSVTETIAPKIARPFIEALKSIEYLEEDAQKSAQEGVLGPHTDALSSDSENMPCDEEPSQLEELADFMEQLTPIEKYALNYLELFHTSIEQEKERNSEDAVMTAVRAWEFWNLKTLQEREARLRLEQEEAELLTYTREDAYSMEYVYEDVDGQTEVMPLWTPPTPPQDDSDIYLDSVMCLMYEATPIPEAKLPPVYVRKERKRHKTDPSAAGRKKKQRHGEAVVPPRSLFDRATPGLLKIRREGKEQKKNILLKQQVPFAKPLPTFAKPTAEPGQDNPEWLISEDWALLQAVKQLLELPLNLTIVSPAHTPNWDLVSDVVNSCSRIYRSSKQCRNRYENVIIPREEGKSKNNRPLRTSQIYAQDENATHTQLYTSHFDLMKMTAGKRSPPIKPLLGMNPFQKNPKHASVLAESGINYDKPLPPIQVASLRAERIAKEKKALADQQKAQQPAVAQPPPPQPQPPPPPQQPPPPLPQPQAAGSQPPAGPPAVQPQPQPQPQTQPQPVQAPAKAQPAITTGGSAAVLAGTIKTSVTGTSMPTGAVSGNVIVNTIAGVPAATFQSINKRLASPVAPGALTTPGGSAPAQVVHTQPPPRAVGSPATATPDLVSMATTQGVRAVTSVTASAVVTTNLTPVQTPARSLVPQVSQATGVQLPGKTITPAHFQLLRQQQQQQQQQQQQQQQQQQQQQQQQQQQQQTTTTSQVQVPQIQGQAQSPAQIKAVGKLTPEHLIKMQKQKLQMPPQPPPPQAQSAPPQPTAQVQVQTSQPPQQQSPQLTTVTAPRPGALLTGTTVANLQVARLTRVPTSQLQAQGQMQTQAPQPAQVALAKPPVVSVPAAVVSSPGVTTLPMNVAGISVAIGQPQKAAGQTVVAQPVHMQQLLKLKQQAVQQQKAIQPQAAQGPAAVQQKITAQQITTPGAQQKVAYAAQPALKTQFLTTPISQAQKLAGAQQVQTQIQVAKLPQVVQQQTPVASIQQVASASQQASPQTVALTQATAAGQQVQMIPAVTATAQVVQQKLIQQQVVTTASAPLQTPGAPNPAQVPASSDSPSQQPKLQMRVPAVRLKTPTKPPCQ
# UniProt P04608: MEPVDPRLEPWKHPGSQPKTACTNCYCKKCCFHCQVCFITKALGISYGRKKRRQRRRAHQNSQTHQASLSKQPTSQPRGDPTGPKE
# UniProt Q9NPF5: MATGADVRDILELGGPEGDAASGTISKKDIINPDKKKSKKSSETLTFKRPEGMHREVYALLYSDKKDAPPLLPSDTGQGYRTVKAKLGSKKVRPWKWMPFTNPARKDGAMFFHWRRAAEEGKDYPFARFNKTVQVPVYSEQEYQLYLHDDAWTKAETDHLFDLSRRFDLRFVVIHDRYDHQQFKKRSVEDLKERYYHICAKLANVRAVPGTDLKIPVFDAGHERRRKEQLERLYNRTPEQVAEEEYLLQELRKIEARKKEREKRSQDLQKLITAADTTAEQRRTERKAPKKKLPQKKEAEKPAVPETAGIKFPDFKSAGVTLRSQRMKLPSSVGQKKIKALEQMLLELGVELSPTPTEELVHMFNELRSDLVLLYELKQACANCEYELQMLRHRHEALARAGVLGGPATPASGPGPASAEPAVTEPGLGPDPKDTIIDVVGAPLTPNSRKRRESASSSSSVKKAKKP
# UniProt Q92993: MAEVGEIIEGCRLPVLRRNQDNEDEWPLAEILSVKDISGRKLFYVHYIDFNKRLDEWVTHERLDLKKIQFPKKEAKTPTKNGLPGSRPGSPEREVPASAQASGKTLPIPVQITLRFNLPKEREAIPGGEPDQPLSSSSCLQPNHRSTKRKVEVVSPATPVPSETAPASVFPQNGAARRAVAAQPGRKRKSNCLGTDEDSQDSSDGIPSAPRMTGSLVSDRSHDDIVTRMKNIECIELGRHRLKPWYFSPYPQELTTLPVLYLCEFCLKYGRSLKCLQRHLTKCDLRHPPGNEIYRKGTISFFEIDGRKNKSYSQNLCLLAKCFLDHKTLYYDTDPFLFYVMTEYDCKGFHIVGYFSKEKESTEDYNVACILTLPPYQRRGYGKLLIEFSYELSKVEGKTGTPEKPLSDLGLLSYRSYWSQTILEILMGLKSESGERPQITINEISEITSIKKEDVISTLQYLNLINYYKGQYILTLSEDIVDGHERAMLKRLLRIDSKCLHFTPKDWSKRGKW
# No constants are given. Whether binding was seen depends on the method and setting. For some of these results: In cells and extracts the contact can be indirect. Some entries that bind do so weakly or less than the wild type.
# What was measured:
# [1] = target: EP400-Flag (human) (UniProt Q96L91); assay: co-IP; Flag-tagged EP400 co-expressed with DMAP1 truncations in 293T cells
# [2] = target: HIV-1 Tat(86)-Flag, wild type (HIV-1) (UniProt P04608); assay: co-IP; Flag-tagged Tat (WT, deletion or point mutants) co-expressed with DMAP1 (full length or truncations) in 293T cells; DMAP1 band normalised to Tat
# [3] = target: HIV-1 Tat(86)-Flag, wild type (HIV-1) (UniProt P04608); assay: co-IP; Tat immunoprecipitated from HEK293T lysate, co-purified cellular proteins detected by Western blot; IP buffer 50 mM Tris-HCl pH7.5, 1 mM EDTA, 150 mM KCl, 1% Triton-X 100, 4°C; also in cells with stable knock-down of EP400, DMAP1, KAT5 or other p400 subunits
# [4] = target: His-tagged Tat, recombinant purified (HIV-1) (UniProt P04608); assay: pull-down; 1 µg purified His-Tat mixed with 10 µg GST-DMAP1 in 25 mM Tris-HCl pH 7.2, 150 mM NaCl, 1% Triton-X 100, 0.1% SDS, 4°C 1 h; captured with anti-His tag antibody on Dynabeads Protein G; Western blot; both purified
Substance,binding [1],binding [2],also measured
DMAP1 1-305 (from UniProt Q9NPF5 1-305) (domain or fragment),no binding,–,–
DMAP1 212-467 (from UniProt Q9NPF5 212-467) (domain or fragment),–,no binding,–
DMAP1 1-211 (from UniProt Q9NPF5 1-211) (domain or fragment),no binding,–,–
KAT5 (from UniProt Q92993 1-513),–,–,binding [3]: binds
DMAP1 67-467 (from UniProt Q9NPF5 67-467) (domain or fragment),binds,binds,–
"DMAP1 full length (WT, 1-467), overexpressed (from UniProt Q9NPF5 1-467)",binds,binds,–
"DMAP1, endogenous (from UniProt Q9NPF5 1-467)",–,–,binding [3]: binds
"GST-tagged DMAP1, recombinant purified (from UniProt Q9NPF5 1-467)",–,–,binding [4]: binds
DMAP1 121-467 (from UniProt Q9NPF5 121-467) (domain or fragment),–,no binding,–
DMAP1 1-404 (from UniProt Q9NPF5 1-404) (domain or fragment),binds,binds,–
